28 compounds from the supplement of paper PMC10037445 can be followed below.

The test system of assay [1] is RAW-Dual. In words: IRF Lucia reporter activity, fold change vs agonist alone; higher = enhanced IRF activity. Conditions: agonist: MPLA (TLR4) […]. In short, it runs like this: (§1)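 RAW-Dual macrophages were seeded in DMEM at 50,000 cells/well in 384-well plates, given 50 nL of library stock by pin tool, and given a PRR agonist 1 h later. Plates were held at 37 °C, 5% CO2 for 20 hours, after which supernatant was read for IRF by QuantiLuc luminescence and for NF-κB by QuantiBlue absorbance at 620 nm. Reporter activity is expressed as fold change over wells that received agonist alone. A well was called cytotoxic when IncuCyte confluency fell below 70% of agonist controls in both mask sets.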

The test system of assay [2] is RAW-Dual. In words: IRF Lucia reporter activity, fold change vs agonist alone; cytotoxicity flag (confluency mask): not cytotoxic; higher = enhanced IRF activity. In short, it runs like this:
as §1

Assay [3] has as its system RAW-Dual. In words: IRF Lucia reporter activity, fold change vs agonist alone; cytotoxicity flag (confluency mask): cytotoxic (confluency <70% of control); higher = enhanced IRF activity. In short, it runs like this:
as §1

[4] abbreviates: library stock concentration (final ~1000-fold dilution): 10 mM, cytotoxicity flag (confluency mask): not cytotoxic.
The mark [5] stands for this setting: agonist: 3'3'-cGAMP (STING) 10 ug/mL.
Setting [6] is: library stock concentration (final ~1000-fold dilution): 10 mM, cytotoxicity flag (confluency mask): cytotoxic (confluency <70% of control).

Where “and” joins values, the source holds several entries; their conditions need not be identical. Identical values can stand only once. Whole data set: some 2,900 compounds, median “IRF Lucia reporter activity, fold change vs agonist alone” near 0.9, cut for the highest 2% near 2.8. The list shows a part of the results.

For the compound `O=C(CCCN1CCC(O)(c2ccc(Cl)cc2)CC1)c1ccc(F)cc1`, the “IRF Lucia reporter activity” value in the assay on RAW-Dual [1] (setting [4]) came to 1.27.
With `O=C(CCCN1CCC(O)(c2ccc(Cl)cc2)CC1)c1ccc(F)cc1` (library stock concentration (final ~1000-fold dilution): 10 mM), the “IRF Lucia reporter activity” value with RAW-Dual [2] (setting [5]) was 0.769; in the assay on RAW-Dual [2] (agonist: LPS (TLR4) 0.1 ug/mL), 1.46.
The matching figures for `CC(=O)N1c2ccc(-c3ccc(C(=O)O)cc3)cc2C(Nc2ccc(Cl)cc2)CC1C` (centres undefined) (library stock concentration (final ~1000-fold dilution): 10 mM): 0.259 and 0.297.
The matching figures for `C#Cc1cccc(Nc2ncnc3cc(OCCOC)c(OCCO)cc23)c1.Cl` (library stock concentration (final ~1000-fold dilution): 10 mM): 0.0323 and 0.16.
For the compound `C#Cc1cccc(Nc2ncnc3cc(OCCOC)c(OCCO)cc23)c1.Cl`, the “IRF Lucia reporter activity” value with RAW-Dual [1] (setting [4]) worked out at 0.2.
Turning to `CC1Cc2c([nH]c3ccccc23)C(c2c(F)cc(/C=C/C(=O)O)cc2F)N1CC(C)(C)F` (centres undefined) (library stock concentration (final ~1000-fold dilution): 10 mM), the “IRF Lucia reporter activity” value with RAW-Dual [2] (setting [5]) amounted to 1.14; in the assay with RAW-Dual [2] (agonist: LPS (TLR4) 0.1 ug/mL) it was 1.23.
The like results for `COc1cc(C=CC(=O)CC(=O)C=Cc2ccc(O)c(OC)c2)ccc1O` (library stock concentration (final ~1000-fold dilution): 100 mM) were, in that order, 0.00934 and 0.0106.
`COc1ccc(CN(CCN(C)C)c2ncccn2)cc1`: the “IRF Lucia reporter activity” value in the assay with RAW-Dual [1] (setting [4]) amounted to 1.05.
As for `COc1ccc(CN(CCN(C)C)c2ncccn2)cc1` (library stock concentration (final ~1000-fold dilution): 10 mM), the “IRF Lucia reporter activity” value in the assay with RAW-Dual [2] (setting [5]) was determined as 0.979; in the assay on RAW-Dual [2] (agonist: LPS (TLR4) 0.1 ug/mL), 0.549.
On to `Cc1ccc(Sc2ccccc2N2CCNCC2)c(C)c1` (library stock concentration (final ~1000-fold dilution): 10 mM), for which the results for the “IRF Lucia reporter activity” value with RAW-Dual [3] (setting [5]) and in the assay on RAW-Dual [3] (agonist: LPS (TLR4) 0.1 ug/mL) were 0.317 and 0.0341, respectively.
Take `Cc1ccc(Sc2ccccc2N2CCNCC2)c(C)c1`: the “IRF Lucia reporter activity” value with RAW-Dual [1] (setting [6]) came out at 0.167.
For the compound `CS(=O)(=O)O.Cn1cc(C2=C(c3cn(CCCSC(=N)N)c4ccccc34)C(=O)NC2=O)c2ccccc21` (library stock concentration (final ~1000-fold dilution): 10 mM), the figures for the “IRF Lucia reporter activity” value with RAW-Dual [3] (setting [5]) and in the assay with RAW-Dual [3] (agonist: LPS (TLR4) 0.1 ug/mL) were 0.01 and 0.0128, respectively.
`CS(=O)(=O)O.Cn1cc(C2=C(c3cn(CCCSC(=N)N)c4ccccc34)C(=O)NC2=O)c2ccccc21`: the “IRF Lucia reporter activity” value in the assay on RAW-Dual [1] (setting [6]) came to 0.0145.
Take `CN1CCC(CNc2ccc3ncc(-c4cccc(OC(F)(F)F)c4)n3n2)CC1` (library stock concentration (final ~1000-fold dilution): 10 mM): the “IRF Lucia reporter activity” value stood at 1.03 in the assay with RAW-Dual [2] (setting [5]) and 0.089 in the assay with RAW-Dual [2] (agonist: LPS (TLR4) 0.1 ug/mL).
On to `CN1CCC(CNc2ccc3ncc(-c4cccc(OC(F)(F)F)c4)n3n2)CC1`, for which the “IRF Lucia reporter activity” value in the assay on RAW-Dual [1] (setting [4]) is 1.07.
On the same count and under the same terms, the same measure for `COc1cccc2c1C(=O)c1c(O)c3c(c(O)c1C2=O)CC(O)(C(=O)CO)CC3OC1CC(N)C(OC2CCCCO2)C(C)O1` (centres undefined): 0.0196.
Consider `COc1cccc2c1C(=O)c1c(O)c3c(c(O)c1C2=O)CC(O)(C(=O)CO)CC3OC1CC(N)C(OC2CCCCO2)C(C)O1` (centres undefined) (library stock concentration (final ~1000-fold dilution): 10 mM), for which the “IRF Lucia reporter activity” value in the assay on RAW-Dual [2] (setting [5]) is 0.0113; in the assay on RAW-Dual [2] (agonist: LPS (TLR4) 0.1 ug/mL), 0.0162.
The matching figures for `N#C/C(C(=O)c1ccc(Cl)cc1Cl)=C1\NC(=O)c2ccccc2N1` (library stock concentration (final ~1000-fold dilution): 10 mM): 0.947 and 1.16.
The like results for `Cc1ccc(/C(=C\CN2CCCC2)c2ccccn2)cc1.Cl.O` (library stock concentration (final ~1000-fold dilution): 10 mM) were, in that order, 0.877 and 0.728.
For `Cc1ccc(/C(=C\CN2CCCC2)c2ccccn2)cc1.Cl.O`, the “IRF Lucia reporter activity” value in the assay with RAW-Dual [1] (setting [4]) was determined as 1.09.
The same measure, in the same setting: the same measure for `NS(=O)(=O)c1ccc(NC(=O)Nc2ccc(F)cc2)cc1`: 1.02.
As to `NS(=O)(=O)c1ccc(NC(=O)Nc2ccc(F)cc2)cc1` (library stock concentration (final ~1000-fold dilution): 10 mM), the “IRF Lucia reporter activity” value amounted to 0.869 with RAW-Dual [2] (setting [5]) and 0.995 in the assay with RAW-Dual [2] (agonist: LPS (TLR4) 0.1 ug/mL).
On to `CC(Cn1cnc2c(N)ncnc21)OCP(=O)(O)O` (centres undefined), for which, in the assay with RAW-Dual [1] (setting [4]), the “IRF Lucia reporter activity” value was 1.05.
On to `CC(Cn1cnc2c(N)ncnc21)OCP(=O)(O)O` (centres undefined) (library stock concentration (final ~1000-fold dilution): 10 mM), for which the “IRF Lucia reporter activity” value with RAW-Dual [2] (setting [5]) and with RAW-Dual [2] (agonist: LPS (TLR4) 0.1 ug/mL) was 1 in each case.
On to `O=C(NCCCNc1nc(Nc2cccc(NC(=O)N3CCCC3)c2)ncc1I)c1cccs1` (library stock concentration (final ~1000-fold dilution): 10 mM), for which the “IRF Lucia reporter activity” value in the assay with RAW-Dual [3] (setting [5]) is 0.00803 and 0.0152; in the assay on RAW-Dual [3] (agonist: LPS (TLR4) 0.1 ug/mL), 0.0198 and 0.0131.
Take `O=C(NCCCNc1nc(Nc2cccc(NC(=O)N3CCCC3)c2)ncc1I)c1cccs1`: the “IRF Lucia reporter activity” value in the assay on RAW-Dual [1] (setting [6]) was found to be 0.0149.
With `Cc1ccccc1C(=O)Nc1ccc(C(=O)N2CCCC(N(C)C)c3ccccc32)cc1` (centres undefined) (library stock concentration (final ~1000-fold dilution): 2 mM), the “IRF Lucia reporter activity” value in the assay with RAW-Dual [2] (setting [5]) worked out at 1.17; in the assay on RAW-Dual [2] (agonist: LPS (TLR4) 0.1 ug/mL), 0.925.
Consider `Cc1ccccc1C(=O)Nc1ccc(C(=O)N2CCCC(N(C)C)c3ccccc32)cc1` (centres undefined), for which, in the assay with RAW-Dual [1] (library stock concentration (final ~1000-fold dilution): 2 mM, cytotoxicity flag (confluency mask): not cytotoxic), the “IRF Lucia reporter activity” value was 1.18.
